# Laboratory results taken from the supplement of paper PMC8728848.
# This is one part of the list.
# B1: Dectin2 (Homo sapiens), Q6EIG7 (protein)
# chain: MMQEQQPQSTEKRGWLSLRLWSVAGISIALLSACFIVSCVVTYHFTYGETGKRLSELHSYHSSLTCFSEGTKVPAWGCCPASWKSFGSSCYFISSEEKVWSKSEQNCVEMGAHLVVFNTEAEQNFIVQQLNESFSYFLGLSDPQGNNNWQWIDKTPYEKNVRFWHLGEPNHSAEQCASIVFWKPTGWGWNDVICETRRNSICEMNKIYL
# Assays:
# Experiment in all cases: glycan array binding signal (z-score within array); higher = stronger binding
# Conditions in all cases: glycan notation: IUPAC condensed, linker removed
# [1] = molecular target: Neu5Ac(a2-6)Gal(b1-4)GlcNAc(b1-3)Gal(b1-4)GlcNAc(b1-3)Gal(b1-4)GlcNAc(b1-2)Man(a1-3)[Neu5Ac(a2-6)Gal(b1-4)GlcNAc(b1-3)Gal(b1-4)GlcNAc(b1-3)Gal(b1-4)GlcNAc(b1-2)Man(a1-6)]GalNAc
# Summary of the method: (§1)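 Columns mapping to the same glycan were averaged after glycan names were converted to IUPAC-condensed notation. The data come from 3228 arrays in the Consortium for Functional Glycomics database, limited to those with an available protein sequence. Binding is reported as a within-array Z-score averaged across arrays of one protein sequence and across linkers.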
# [2] = molecular target: Neu5Ac(a2-6)Gal(b1-4)GlcNAc(b1-3)Gal(b1-4)GlcNAc(b1-3)GalNAc
# Summary of the method: as §1
# [3] = molecular target: Neu5Ac(a2-6)Gal(b1-4)GlcNAc(b1-3)Gal(b1-4)GlcNAc(b1-3)[Neu5Ac(a2-6)Gal(b1-4)GlcNAc(b1-3)Gal(b1-4)GlcNAc(b1-6)]GalNAc
# Summary of the method: as §1
# [4] = molecular target: Neu5Ac(a2-6)Gal(b1-4)GlcNAc(b1-3)Gal(b1-4)GlcNAc(b1-6)[Gal(b1-3)]GalNAc
# Summary of the method: as §1
# [5] = molecular target: Neu5Ac(a2-6)Gal(b1-4)GlcNAc(b1-3)Gal(b1-4)[Fuc(a1-3)]GlcNAc(b1-3)Gal(b1-4)[Fuc(a1-3)]GlcNAc
# Summary of the method: as §1
# [6] = molecular target: Neu5Ac(a2-6)Gal(b1-4)GlcNAc(b1-3)GalNAc
# Summary of the method: as §1
# [7] = molecular target: Neu5Ac(a2-6)Gal(b1-4)GlcNAc(b1-3)[Neu5Ac(a2-6)Gal(b1-4)GlcNAc(b1-6)]GalNAc
# Summary of the method: as §1
# [8] = molecular target: Neu5Ac(a2-6)Gal(b1-4)GlcNAc(b1-6)GalNAc
# Summary of the method: as §1
# [9] = molecular target: Neu5Ac(a2-6)Gal(b1-4)GlcNAc(b1-6)[Gal(b1-3)GlcNAc(b1-3)]Gal(b1-4)Glc
# Summary of the method: as §1
# [10] = molecular target: Neu5Ac(a2-6)Gal(b1-4)GlcNAc(b1-6)[Gal(b1-3)]GalNAc
# Summary of the method: as §1
# [11] = molecular target: Neu5Ac(a2-6)Gal(b1-4)GlcNAc6S
# Summary of the method: as §1
# [12] = molecular target: Neu5Ac(a2-6)GalNAc
# Summary of the method: as §1
# [13] = molecular target: Neu5Ac(a2-6)GalNAc(b1-4)GlcNAc
# Summary of the method: as §1
# [14] = molecular target: Neu5Ac(a2-6)GalNAc(b1-4)GlcNAc6S
# Summary of the method: as §1
# [15] = molecular target: Neu5Ac(a2-6)GlcNAc(b1-4)GlcNAc
# Summary of the method: as §1
# [16] = molecular target: Neu5Ac(a2-6)GlcNAc(b1-4)GlcNAc(b1-4)GlcNAc
# Summary of the method: as §1
# [17] = molecular target: Neu5Ac(a2-8)Neu5Ac
# Summary of the method: as §1
# [18] = molecular target: Neu5Ac(a2-8)Neu5Ac(a2-3)Gal(b1-3)GalNAc(b1-4)[Neu5Ac(a2-3)]Gal(b1-4)Glc
# Summary of the method: as §1
# [19] = molecular target: Neu5Ac(a2-8)Neu5Ac(a2-3)Gal(b1-3)GalNAc(b1-4)[Neu5Ac(a2-8)Neu5Ac(a2-3)]Gal(b1-4)Glc
# Summary of the method: as §1
# [20] = molecular target: Neu5Ac(a2-8)Neu5Ac(a2-3)Gal(b1-4)Glc
# Summary of the method: as §1
# [21] = molecular target: Neu5Ac(a2-8)Neu5Ac(a2-3)Gal(b1-4)GlcNAc
# Summary of the method: as §1
# [22] = molecular target: Neu5Ac(a2-8)Neu5Ac(a2-3)[Gal(b1-3)GalNAc(b1-4)]Gal(b1-4)Glc
# Summary of the method: as §1
# [23] = molecular target: Neu5Ac(a2-8)Neu5Ac(a2-3)[GalNAc(b1-4)]Gal(b1-4)Glc
# Summary of the method: as §1
# [24] = molecular target: Neu5Ac(a2-8)Neu5Ac(a2-8)Neu5Ac
# Summary of the method: as §1
# [25] = molecular target: Neu5Ac(a2-8)Neu5Ac(a2-8)Neu5Ac(a2-3)Gal(b1-4)Glc
# Summary of the method: as §1
# [26] = molecular target: Neu5Ac(a2-8)Neu5Ac(a2-8)Neu5Ac(a2-3)[Gal(b1-3)GalNAc(b1-4)]Gal(b1-4)Glc
# Summary of the method: as §1
# [27] = molecular target: Neu5Ac(a2-8)Neu5Ac(a2-8)Neu5Ac(a2-3)[GalNAc(b1-4)]Gal(b1-4)Glc
# Summary of the method: as §1
# [28] = molecular target: Neu5Ac(a2-8)Neu5Ac(a2-8)Neu5Ac(a2-8)Neu5Ac(a2-3)[GalNAc(b1-4)]Gal(b1-4)Glc
# Summary of the method: as §1
# [29] = molecular target: Neu5Ac(a2-8)Neu5Gc(a2-3)Gal(b1-4)GlcNAc
# Summary of the method: as §1
# [30] = molecular target: Neu5Ac(b2-6)Gal(b1-4)GlcNAc
# Summary of the method: as §1
# [31] = molecular target: Neu5Ac(b2-6)GalNAc
# Summary of the method: as §1
# [32] = molecular target: Neu5Ac9Ac(a2-3)Gal(b1-3)GlcNAc
# Summary of the method: as §1
# [33] = molecular target: Neu5Ac9Ac(a2-3)Gal(b1-4)GlcNAc
# Summary of the method: as §1
# [34] = molecular target: Neu5Ac9Ac(a2-6)Gal(b1-4)GlcNAc
# Summary of the method: as §1
# [35] = molecular target: Neu5Gc(a2-3)Gal(b1-3)GlcNAc
# Summary of the method: as §1
# [36] = molecular target: Neu5Gc(a2-3)Gal(b1-3)[Fuc(a1-4)]GlcNAc
# Summary of the method: as §1
# [37] = molecular target: Neu5Gc(a2-3)Gal(b1-4)Glc
# Summary of the method: as §1
# [38] = molecular target: Neu5Gc(a2-3)Gal(b1-4)GlcNAc
# Summary of the method: as §1
# [39] = molecular target: Neu5Gc(a2-3)Gal(b1-4)GlcNAc(b1-3)Gal(b1-4)GlcNAc(b1-2)Man(a1-3)[Neu5Gc(a2-3)Gal(b1-4)GlcNAc(b1-3)Gal(b1-4)GlcNAc(b1-2)Man(a1-6)]Man(b1-4)GlcNAc(b1-4)GlcNAc
# Summary of the method: as §1
# [40] = molecular target: Neu5Gc(a2-3)Gal(b1-4)[Fuc(a1-3)]GlcNAc
# Summary of the method: as §1
# [41] = molecular target: Neu5Gc(a2-6)Gal(b1-4)GlcNAc
# Summary of the method: as §1
# [42] = molecular target: Neu5Gc(a2-6)GalNAc
# Summary of the method: as §1
# [43] = molecular target: Neu5Gc(a2-8)Neu5Ac(a2-3)Gal(b1-4)GlcNAc
# Summary of the method: as §1
# [44] = molecular target: Neu5Gc(a2-8)Neu5Gc(a2-3)Gal(b1-4)GlcNAc
# Summary of the method: as §1
# [45] = molecular target: Neu5Gc(a2-8)Neu5Gc(a2-3)Gal(b1-4)GlcNAc(b1-3)Gal(b1-4)GlcNAc
# Summary of the method: as §1
binder,measurement,setting,value
B1,glycan array binding signal (z-score),[1],0.455
same,glycan array binding signal (z-score),[2],-0.191
same,glycan array binding signal (z-score),[3],0.101
same,glycan array binding signal (z-score),[4],-0.147
same,glycan array binding signal (z-score),[5],-0.097
same,glycan array binding signal (z-score),[6],-0.198
same,glycan array binding signal (z-score),[7],-0.192
same,glycan array binding signal (z-score),[8],-0.146
same,glycan array binding signal (z-score),[9],-0.184
same,glycan array binding signal (z-score),[10],-0.15
same,glycan array binding signal (z-score),[11],-0.179
same,glycan array binding signal (z-score),[12],-0.176
same,glycan array binding signal (z-score),[13],-0.192
same,glycan array binding signal (z-score),[14],-0.186
same,glycan array binding signal (z-score),[15],-0.134
same,glycan array binding signal (z-score),[16],0.119
same,glycan array binding signal (z-score),[17],-0.183
same,glycan array binding signal (z-score),[18],-0.186
same,glycan array binding signal (z-score),[19],-0.116
same,glycan array binding signal (z-score),[20],-0.201
same,glycan array binding signal (z-score),[21],-0.21
same,glycan array binding signal (z-score),[22],-0.05
same,glycan array binding signal (z-score),[23],-0.177
same,glycan array binding signal (z-score),[24],-0.183
same,glycan array binding signal (z-score),[25],-0.199
same,glycan array binding signal (z-score),[26],-0.17
same,glycan array binding signal (z-score),[27],-0.133
same,glycan array binding signal (z-score),[28],-0.182
same,glycan array binding signal (z-score),[29],-0.21
same,glycan array binding signal (z-score),[30],-0.171
same,glycan array binding signal (z-score),[31],-0.206
same,glycan array binding signal (z-score),[32],-0.21
same,glycan array binding signal (z-score),[33],0.011
same,glycan array binding signal (z-score),[34],-0.14
same,glycan array binding signal (z-score),[35],-0.164
same,glycan array binding signal (z-score),[36],-0.04
same,glycan array binding signal (z-score),[37],-0.147
same,glycan array binding signal (z-score),[38],-0.193
same,glycan array binding signal (z-score),[39],-0.102
same,glycan array binding signal (z-score),[40],-0.069
same,glycan array binding signal (z-score),[41],-0.154
same,glycan array binding signal (z-score),[42],-0.2
same,glycan array binding signal (z-score),[43],-0.194
same,glycan array binding signal (z-score),[44],-0.191
same,glycan array binding signal (z-score),[45],-0.206
